In a collection of fitness landscapes (doi:10.1016/j.celrep.2020.107928):
The full ranking holds about 81,000 sequences; the median of “one-hybrid fitness for binding parS DNA” is about -0.17, and the highest 2% start at about 0.51. Some of the results follow.

B1: Caulobacter ParB omega fusion; a variant is named by its letters at X, in order, B8GW30 (parent)
chain: MESVVVGEPGMSEGRRGLGRGLSALLGEVDAAPAQAPGEQLGGSREAPIEILQRNPDQPRRTFREEDLEDLSNSIREKGVLQPILVRPSPDTAGEYQIVAGERAWRAAQRAGLKTVPIMVRELDDLAVLEIGIIENVQRADLNVLEEALSYKVLMEKFERTQENIAQTIGKSXSHVANXMRLLXLPDEVQSYLVSGELTAXHARAIAAAADPVALAKQIIEGGLSVRETEALARKAPNLSAGKSKGGRPPRVKDTDTQALESDLSSVLGLDVSIDHRGSTGTLTITYATLEQLDDLCNRLTRGI

Variants of: B1
Assay: one-hybrid fitness for binding parS DNA (scaled: cognate 1, non-cognate 0); higher = stronger binding
Details: with parS DNA site
Outline: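 The reporter was HIS3, with the binding site 19 bp from the promoter, in E. coli USO used for bacterial one-hybrid selection of Caulobacter ParB libraries with four specificity codons randomised. Growth was on M9 lacking histidine, with 0.1 mM IPTG and 5 mM 3-AT, for 48 hours at 37°C. Illumina sequencing covered plasmids before and after selection; three replicate libraries were pooled and variants with under 10 reads dropped. A fitness score is the log change in variant-to-wild-type read ratio, rescaled to the cognate and non-cognate references.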

Variant	one-hybrid fitness for binding parS DNA
AHDF	≤ 0.2
DSSV	≤ 0.2
LHST	≤ 0.2
HVPC	≤ 0.2
YQKN	≤ 0.2
PSNR	≤ 0.2
DMKS	≤ 0.2
DTQK	≤ 0.2
NRKT	≤ 0.2
MPTI	≤ 0.2
WKSG	≤ 0.2
LPHV	≤ 0.2
DIFR	≤ 0.2
SDSC	≤ 0.2
AHQV	≤ 0.2
QMEM	≤ 0.2
TDPA	≤ 0.2
ARGY	≤ 0.2
LMGI	≤ 0.2
HNSC	≤ 0.2
SWRR	≤ 0.2
GEDW	≤ 0.2
IRMT	≤ 0.2
QGQC	≤ 0.2
CSCC	≤ 0.2

Variant	one-hybrid fitness for binding parS DNA
GSAI	≤ 0.2
SVRL	≤ 0.2
PPVQ	≤ 0.2
AGTE	≤ 0.2
NEHR	≤ 0.2
PNNH	≤ 0.2
EKQP	≤ 0.2
RFDG	0.814
GPWG	≤ 0.2
NCYV	≤ 0.2
QYNL	≤ 0.2
ECDG	≤ 0.2
VWNM	≤ 0.2
SIGS	≤ 0.2
RTGI	≤ 0.2
GRMR	≤ 0.2
KHNS	≤ 0.2
PNAE	≤ 0.2
ARPT	≤ 0.2
FPLF	≤ 0.2
ADDS	≤ 0.2
NNIP	≤ 0.2
FWLT	≤ 0.2
TMVS	≤ 0.2
PARG	≤ 0.2

Variant	one-hybrid fitness for binding parS DNA
RDDT	≤ 0.2
EAHC	≤ 0.2
PWHT	≤ 0.2
DTSM	≤ 0.2
NPDS	≤ 0.2
VLTM	≤ 0.2
SRTI	≤ 0.2
TFVM	≤ 0.2
LMFS	≤ 0.2
MAVS	≤ 0.2
LDPM	≤ 0.2
WSHA	≤ 0.2
KGLI	≤ 0.2
GHWT	≤ 0.2
QYVV	≤ 0.2
MPPI	≤ 0.2
AGVS	≤ 0.2
TRYD	≤ 0.2
ARKQ	≤ 0.2
MYSG	≤ 0.2
QLEF	≤ 0.2
AVYL	≤ 0.2
QTVE	≤ 0.2
VNTC	≤ 0.2
PPYI	≤ 0.2

Variant	one-hybrid fitness for binding parS DNA
VNLC	≤ 0.2
DRLL	≤ 0.2
PLRM	≤ 0.2
QRLS	≤ 0.2
PRCA	≤ 0.2
SYET	≤ 0.2
VTPY	≤ 0.2
RLDG	0.931
QHVP	≤ 0.2
KSQQ	≤ 0.2
NPEC	≤ 0.2
CWHV	≤ 0.2
PEGS	≤ 0.2
QVMC	≤ 0.2
GSKG	≤ 0.2
SYTW	≤ 0.2
IQTN	≤ 0.2
TKNK	≤ 0.2
RASV	≤ 0.2
NCWG	≤ 0.2
RVRT	0.825
SDWG	≤ 0.2
GKTG	≤ 0.2
RLRH	0.223
AWPK	≤ 0.2

Variant	one-hybrid fitness for binding parS DNA
QLMI	≤ 0.2
CGAW	≤ 0.2
WDDL	≤ 0.2
DWSD	≤ 0.2
RFMG	0.864
DRSH	≤ 0.2
RIKN	0.451
ESTD	≤ 0.2
LFLR	≤ 0.2
YGMR	≤ 0.2
HYGP	≤ 0.2
ACEY	≤ 0.2
TNCW	≤ 0.2
QCEV	≤ 0.2
NAVC	≤ 0.2
LIMY	≤ 0.2
ECKA	≤ 0.2
NITV	≤ 0.2
THRM	≤ 0.2
HTIS	≤ 0.2
ALST	≤ 0.2
NDGC	≤ 0.2
SDMR	≤ 0.2
KMRA	≤ 0.2
TYRT	≤ 0.2

Variant	one-hybrid fitness for binding parS DNA
DGHH	0.304
WYVL	≤ 0.2
PSQR	≤ 0.2
SYGD	≤ 0.2
DHGK	≤ 0.2
DPVR	≤ 0.2
ITGC	≤ 0.2
RGSG	0.771
AARV	≤ 0.2
QVYT	≤ 0.2
IEPF	≤ 0.2
SRSM	≤ 0.2
CRPY	≤ 0.2
LSAA	≤ 0.2
RKIS	0.958
AHHT	≤ 0.2
SETL	≤ 0.2
LRIF	≤ 0.2
IITM	≤ 0.2
ASMF	≤ 0.2
RRPL	≤ 0.2
AWSF	≤ 0.2
HVKC	≤ 0.2
CTRS	≤ 0.2
HPWS	≤ 0.2

Variant	one-hybrid fitness for binding parS DNA
KEPG	≤ 0.2
RGCE	≤ 0.2
YYMR	≤ 0.2
MDRG	≤ 0.2
KRAK	≤ 0.2
ICLT	≤ 0.2
FRMR	≤ 0.2
RGYW	≤ 0.2
SDTC	≤ 0.2
CNNM	≤ 0.2
MNMS	≤ 0.2
NQIG	≤ 0.2
NYVT	≤ 0.2
HQIT	≤ 0.2
ECSL	≤ 0.2
NSWT	≤ 0.2
VNLA	≤ 0.2
QYVN	≤ 0.2
ILAW	≤ 0.2
GELS	≤ 0.2
HIVF	≤ 0.2
QPLY	≤ 0.2
SLQR	≤ 0.2
QNTF	≤ 0.2
ENAK	≤ 0.2

Variant	one-hybrid fitness for binding parS DNA
HCVS	≤ 0.2
SVQC	≤ 0.2
QTSQ	≤ 0.2
HVLC	≤ 0.2
LWRH	≤ 0.2
FHHS	≤ 0.2
LLHG	≤ 0.2
DFDT	≤ 0.2
NMDD	≤ 0.2
NNPF	≤ 0.2
RECD	≤ 0.2
IVRV	≤ 0.2
VCIL	≤ 0.2
SIHD	≤ 0.2
PYDG	≤ 0.2
FSHT	≤ 0.2
YNGW	0.204
VTKA	≤ 0.2
PPYD	≤ 0.2
YHSN	≤ 0.2
